About 50,000 (12%) of roughly 420,000 compounds were called active. This list was built around the results that the source calls inconclusive (neither active nor inactive); the mix of calls is not that of the screen. The call rests on the fitted dose curve; in most records, active means well fitted inhibition curve with a large enough effect; inconclusive means small, poorly fitted or top-dose-only effect; inactive means flat fitted curve, though single readings scatter. No potency is given beside an inconclusive call; the fits are too rough.
Assay: qHTS for Inhibitors of human tyrosyl-DNA phosphodiesterase 1 (TDP1): qHTS in cells in presence of CPT; further: nearly all actives have a fitted effect of over 55% in size
Conditions: chicken DT40 Tdp1-/-;hTDP1 cells + 20 nM CPT, ATP luminescence, 48 h; series mostly up to 46.2 µM
Outline: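 Cell growth measured by CellTiter-Glo luminescence after a minimum 48 h, 37 C compound exposure with 20 nM CPT in Tdp1-knockout DT40 cells stably expressing hTDP1, seeded 400/well; qHTS titration format.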
Potency means the concentration at half of the fitted maximal effect; tags describe the fitted curve by direction and shape.

Compound | Potency
CN(C)S(=O)(=O)c1cccc(NC(=S)NCc2ccc3c(c2)OCO3)c1 | inconclusive [inhibitor, partial curve]
C[C@@H](c1ncncc1F)C(O)(Cn1cncn1)c1ccc(F)cc1F (stereo partly drawn) | inactive
CCCN1C(=O)/C(=C/c2ccc(C)s2)NC1=S | active: 25.9 µM
CC1(C)CC(/C=C/c2ccccc2)=Nc2ccccc2N1 | active: 18.4 µM
CC(NC(=O)c1ccco1)C(c1cccs1)N1CCOCC1 (stereo not drawn) | inactive
COc1ccc(CNCCC(c2ccc3c(c2)OCO3)c2ccccc2OC)cc1 (stereo not drawn) | active: 6.51 µM
O=C(Cn1cnc2ccccc2c1=O)NCCC(=O)Nc1ccccc1C(F)(F)F | inactive
C[C@@H](NC(=O)OC(C)(C)C)c1nnc(S(=O)(=O)Cc2ccccc2)o1 | active: 0.651 µM
O=[N+]([O-])c1cccc(NC(=S)NCc2ccncc2)c1 | inactive
O=C(c1cccc(S(=O)(=O)N2CCOCC2)c1)N(Cc1ccc(F)cc1)Cc1ccco1 | inconclusive [inhibitor, single point]
COc1ccc(C(=O)Nc2cccc(C(=O)NCc3ccccc3)c2)cc1 | active: 20.6 µM
CC(C)(C)C(=O)/C=C(N)/C=C/c1ccccc1 | inactive
O=C(NC1CCCC1)c1ccc2c(c1)N(Cc1ccccc1)C(=O)c1ccccc1S2 | inconclusive [inhibitor, single point]
CC1CCN(c2nc3ccc(C(=O)NCc4ccccc4Cl)cc3s2)CC1 | inconclusive [inhibitor, single point]
Cc1cccc(NC(=O)c2cccc3c2C(=O)c2ccccc2-3)c1 | inactive
CCN(C(=O)CCC(=O)N(CC)c1ccccc1)c1ccccc1 | inconclusive [inhibitor, partial curve]
O=C(O)CCSc1nc2ccccc2n1Cc1ccccc1 | inactive
COc1ccc(C2=C(N3CCN(c4cccc(C)c4)C(C)C3)c3ccccc3C2=O)cc1 (stereo not drawn) | active: 20.6 µM
CCOC(=O)CNC(=S)N(Cc1ccco1)Cc1ccccc1Cl | inconclusive [inhibitor, single point]
CCN(C(=O)COC(=O)Cc1coc2cc(C)ccc12)c1c(N)n(Cc2ccccc2)c(=O)[nH]c1=O | inconclusive [inhibitor, single point]
CCOc1ccccc1NC(=O)/C=C/C(N)=O | active: 4.11 µM
Cc1ccc(F)cc1NC(=O)Cn1c(C)cc(C)c(C#N)c1=O | active: 20.6 µM
COc1cccc(CNC(=O)Cc2c(C)c3ccc(OC)c(C)c3oc2=O)c1 | inactive

Reference: PubChem BioAssay AID686979 (National Center for Advancing Translational Sciences (NCATS), 2013)
